About 4,000 (1.1%) of roughly 380,000 compounds were called active. Inconclusive results, whose numbers are uncertain, are shown with a selection of clear calls. Calls follow the shape of the dose curve; as a rule, active = well fitted activation curve with a large enough effect; inconclusive = small, poorly fitted or top-dose-only effect; inactive = no such curve, though single readings can be large or run the other way. A potency beside an inconclusive call is a rough fit, not a confirmed value.
test: qHTS Assay to Identify Small Molecule Activators of BRCA1 Expression; conditions: MCF7-BRCA1-FFLuc reporter, luminescence, 48 h; activation: at 46.1 µM (top of the series), scaled: vehicle 0%, 10 µM genistein 100% unless noted; also: nearly all actives have a fitted effect of over 80% in size
In short: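 Quantitative HTS in MCF7 cells stably reporting BRCA1 expression via firefly luciferase. Compound treatment lasts 48 h at 37 °C in phenol-red free MEM. Activation is expressed relative to genistein at 10 microM and DMSO.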
Potency is read from the fitted curve at half-maximal effect; tags tell the direction and shape of the fitted curve.

Row | SMILES | Potency | activation
1 | O=C(NC(=S)Nc1ccc(N2CCN(C(=O)c3ccccc3)CC2)cc1)c1cccs1 | inactive | 
2 | N/C(Cc1cccs1)=N\OC(=O)COc1ccccc1Cl | active: 12.6 µM | 
3 | Nc1[nH]c(N=NC(=O)c2ccccc2O)c2ccccc12 | inconclusive: 0.631 µM [activator, full curve, poor fit] | 
4 | N/C(=N\N=C\c1ccc(O)c(O)c1)c1nonc1N | inconclusive: 20 µM [activator, single point] | 
5 | COc1ccccc1NC(=S)N1CCOCC1 | inactive | 
6 | O=C(O)c1ccc(-c2noc(-c3ccccc3C(F)(F)F)n2)cc1 | inconclusive: 7.08 µM [activator, partial curve, poor fit] | 
7 | O=C(NCc1ccccc1)c1cc(-c2ccco2)on1 | active: 11.2 µM | 
8 | CC(OC(=O)c1ccco1)C(=O)Nc1nc(-c2ccccc2)cs1 (stereo not given) | inconclusive: 2.51 µM [activator, full curve, poor fit] | 
9 | Cc1csc(NC(=O)Nc2cccc(Cl)c2)n1 | inconclusive: 8.91 µM [activator, partial curve, poor fit] | 
10 | CC(C)(C)c1ccc2c(c1)C(=O)c1ccccc1C2=O | inactive | 
11 | COc1c(C(=O)NNC(=O)c2ccccc2Cl)csc1Br | active: 10 µM | 
12 | O=C(c1ccc2ccccc2c1)N1CCc2ccccc21 | inconclusive: 11.2 µM [activator, partial curve, poor fit] | 
13 | COc1ccc(/C=C2\Oc3ccccc3C2=O)cc1 | inconclusive: 3.16 µM [activator, partial curve, poor fit] | 
14 | CC(C)=CC(=O)Nc1nnc(C(C)C)s1 | inconclusive: 2.24 µM [activator, full curve, poor fit] | 
15 | Cc1ccc(NC(=O)c2cc(-c3cccs3)on2)cc1C | inconclusive: 2.82 µM [activator, full curve, poor fit] | 
16 | Cc1cc(N)n(-c2ccc3ccccc3c2)n1 | inconclusive: 11.2 µM [activator, partial curve, poor fit] | 
17 | Cc1ccc(S(=O)(=O)CCC(=O)Nc2sccc2C(N)=O)cc1 | inactive | 
18 | O=[N+]([O-])c1ccc(N2CCc3ccccc3C2)nc1 | active: 11.2 µM | 
19 | O=C(NCc1ccccc1)c1cc(-c2cccc(O)c2)on1 | inconclusive: 11.2 µM [activator, partial curve, poor fit] | 
20 | O=C(Cc1ccc(Br)cc1)c1ccc(O)cc1O | active: 11.2 µM | 
21 | O=C(CCCn1c(=S)[nH]c2cc3c(cc2c1=O)OCO3)N1CCN(c2ccc(F)cc2)CC1 | inactive | 
22 | CC(Oc1ccc(Cl)cc1Cl)C(=O)Nc1ccncc1 (stereo not given) | inactive | 
23 | O=C(C(Cl)Cl)N1c2ccccc2OCC1c1ccccc1 (stereo not given) | inactive | 
24 | COc1cccc(CNC(=O)CN2C(=O)N(c3c(C)cccc3C)S(=O)(=O)c3ccccc32)c1OC | inactive | 
25 | CC(=O)C(/C=N/c1cc(-c2ccc(C)cc2)nn1-c1ccccc1)=C(\C)O | active: 3.98 µM | 
26 | O=C(Cn1ccsc1=NC(=O)C(F)(F)F)c1ccccc1 | active: 7.94 µM | 
27 | Cc1nn(-c2ccccc2)c(C)c1CCC(=O)O | inconclusive: 12.6 µM [activator, partial curve, poor fit] | 

Row | SMILES | Potency | activation
28 | CCOC(=O)C1CCCN(C(=O)CCc2nc3sc4c(c3c(=O)[nH]2)CCCC4)C1 (stereo not given) | inactive | 
29 | COC(=O)c1ccc(N/C=C\C(=O)c2ccc3c(c2)OCO3)cc1 | inconclusive: 5.62 µM [activator, partial curve, poor fit] | 
30 | Cc1ccc(NC(=O)c2ccco2)cc1 | active: 7.94 µM | 
31 | Nc1ccc(/C=C/c2ccc3ncccc3c2)cc1 | inconclusive: 1.26 µM [activator, partial curve, poor fit] | 
32 | O=C1C=C(c2ccccc2)C(=O)N1Nc1ccccc1 | inactive | 
33 | CCc1nnc(NC(=O)c2ccc(COc3ccc(C)cc3)o2)s1 | active: 5.01 µM | 
34 | COC(=O)c1cnc(SCc2ccc(C)cc2)n1C | inconclusive: 15.8 µM [activator, single point] | 
35 | CCOc1ccc(OCC(=O)Nc2ccccc2C(F)(F)F)cc1 | inconclusive: 12.6 µM [activator, partial curve, poor fit] | 
36 | COc1ccc(NC(=O)Nc2ccc(Br)cn2)cc1 | inconclusive: 2.24 µM [activator, full curve, poor fit] | 
37 | CN(C)c1ccc(/C=C2\C=Cc3ccccc32)cc1Br | inconclusive: 31.6 µM [activator, single point] | 
38 | CC(C)NC(=S)N/N=C/c1ccc2c(c1)OCCO2 | inactive | 
39 | Cn1cccc1/C=C1\CCC/C(=C\c2cccn2C)C1=O | inconclusive: 1 µM [activator, full curve, poor fit] | 
40 | COc1ccccc1NC(=O)COC(=O)c1cnccn1 | inactive | 
41 | CCN1C(=O)/C(=C\C=C2/C=CC=CN2CC)SC1=S | inconclusive: 1.26 µM [activator, full curve, poor fit] | 
42 | C#CCCc1cscc1/C=[N+](\[O-])c1ccc(C(=O)OCC)cc1 | active: 6.31 µM | 
43 | COc1ccc(OC)c(-c2csc(NC(=O)COC(=O)C3(C)CC3(Cl)Cl)n2)c1 (stereo not given) | inactive | 
44 | Cc1[nH]c(=S)[nH]c(=O)c1Cc1ccccc1 | inactive | 
45 | Cc1ccc(SC[C@H](CC(C)C)N2CCN(C)CCC2=O)cc1 | inconclusive: 10 µM [activator, partial curve, poor fit] | 
46 | CN(C)/C=C/C(=O)c1cnc(-c2ccc(Cl)cc2)s1 | inconclusive: 12.6 µM [activator, partial curve, poor fit] | 
47 | CCNC1=C(Cl)C(=O)c2ccccc2C1=O | inactive | 
48 | O=c1oc(CCCO)cc2ccc(Br)cc12 | inactive | 
49 | COCCNC(=O)c1cc2c(s1)-c1ccc(Cl)cc1SC2 | inconclusive: 2.51 µM [activator, full curve, poor fit] | 
50 | Nc1ccc(-c2nc3ncccc3o2)c(Cl)c1 | inconclusive: 0.355 µM [activator, full curve, poor fit] | 
51 | c1ccc(-c2nc3ccccc3[nH]2)cc1 | inconclusive: 8.91 µM [activator, partial curve, poor fit] | 
52 | Oc1c(Cl)cc(Cl)c2c1NCCC2 | inactive | 
53 | CCCCn1cnc2c(sc3nc4c(cc32)CSC(C)(C)C4)c1=O | inconclusive: 2 µM [activator, partial curve, poor fit] | 
54 | O=C(Nc1ccc2c(c1)OCCO2)C1CCN(C(=O)c2ccc(F)cc2)CC1 | inconclusive: 11.2 µM [activator, partial curve, poor fit] | 

Row | SMILES | Potency | activation
55 | CS/C(N)=N/N=C/c1ccc2c(c1)OCO2 | inconclusive: 17.8 µM [activator, partial curve, poor fit] | 
56 | COc1ccc(-c2cc(-c3cc(F)ccc3O)[nH]n2)cc1OC | active: 10 µM | 
57 | Fc1ccc(CSc2nc3ncccc3[nH]2)cc1 | inconclusive: 3.98 µM [activator, partial curve, poor fit] | 
58 | O=C(CN1CCCCC1)NC(=O)NC1CCCC1 | inactive | 
59 | Cc1csc(SCc2nnc(-c3ccc(Cl)cc3)o2)n1 | active: 7.08 µM | 
60 | O=C(NCCC(=O)N1CCCCC1)c1ccc(Br)cc1 | active: 10 µM | 
61 | Clc1ncccc1-c1nnn(-c2ccccc2Br)n1 | inconclusive: 15.8 µM [activator, partial curve, poor fit] | 
62 | COc1c(C)cccc1C(=O)Nc1ccc(N2CCOCC2)c(Cl)c1 | active: 2.51 µM | 
63 | CC(C)(C)C(=O)Nc1nnc(CCc2ccccc2)s1 | active: 4.47 µM | 
64 | CCCc1nnc(NC(=O)c2cccc(OC)c2)s1 | active: 7.08 µM | 
65 | CCc1cc2c(=O)n(-c3ccccc3)cnc2s1 | active: 17.8 µM | 
66 | COc1ccc(-n2cc(C(=O)c3cc(Cl)ccc3O)cc(C#N)c2=O)cc1 | inactive | 
67 | O=C(/C=C/c1ccccc1)NC1CC2CCC1C2 (stereo not given) | inconclusive: 14.1 µM [activator, partial curve, poor fit] | 
68 | O=C(Cc1cccs1)NCc1cc(Cl)cc(Cl)c1 | inconclusive: 15.8 µM [activator, single point] | 
69 | COc1ccc(-c2cc(C(=O)O)c(C)o2)cc1OC |  | inconclusive: 182% [activator] [at 1.84 µM, scaled: vehicle 0%, 10 µM genistein 100%]
70 | O=C(NN1CCOCC1)c1cccc(COc2cccc(Br)c2)c1 | inconclusive: 0.794 µM [activator, full curve, poor fit] | 
71 | COc1ccc(C(=O)Nc2cc(C)on2)cc1[N+](=O)[O-] | inactive | 
72 | CCCCC(=O)Nc1ccc(C2C(=O)c3ccccc3C2=O)cc1 | active: 3.98 µM | 
73 | Cc1cc(/C=C(/C#N)c2cccc(F)c2)c(C)n1-c1cccnc1 | inconclusive: 10 µM [activator, partial curve, poor fit] | 
74 | C[C@@H]1C=C[C@](Cc2ccccc2)(C(=O)NCC2CC2)N1C(=O)c1ccccc1 | inconclusive: 35.5 µM [activator, single point] | 
75 | COc1cc(NC(=S)NCc2cccnc2)c(OC)cc1Cl | inactive | 
76 | O=C(N/N=C1/CC2C=CCC12)c1ccco1 (stereo not given) | inactive | 
77 | CCc1ccc(C(=O)Nc2nnn(CC)n2)cc1 | inconclusive: 1.26 µM [activator, full curve, poor fit] | 
78 | C=CCCN(C(CC(C)C)C(=O)OC)S(=O)(=O)c1ccccc1Br (stereo not given) | inactive | 
79 | O=C(OC(c1ccccc1)c1nccc2ccccc12)c1cccc([N+](=O)[O-])c1 (stereo not given) | active: 7.08 µM | 
80 | CCn1c(CSc2nnc(-c3ccoc3C)n2C)nc2cc(S(=O)(=O)N(C)C)ccc21 | inconclusive: 14.1 µM [activator, single point] | 

Source: PubChem BioAssay AID624202 (National Center for Advancing Translational Sciences (NCATS), 2012)
